The list shows a part of the results. Repeats are few or missing, and single values can be far off.
Each compound was assayed on WM3619 (assay: cell count relative to DMSO control; melanoma cells; higher = more viable cells). Settings: library dose: standard library concentration; 72 h; first compound 2 µM.
In the case of Cn1sc(=O)n(Cc2ccccc2)c1=O + C[C@@H]1CCN(C(=O)CC#N)C[C@@H]1N(C)c1ncnc2[nH]ccc12 [CP690550] (partner dose 5 µM), the cell count is reported as 102%. Cn1sc(=O)n(Cc2ccccc2)c1=O + Cc1cc(N2CCOCC2)cc2[nH]c(-c3c(NC[C@@H](O)c4cccc(Cl)c4)cc[nH]c3=O)nc12 [BMS536924] (partner dose 1 µM) showed a cell count of 92.2%. CCCCCCCCCCCCCCCCCCOP(=O)([O-])OC1CC[N+](C)(C)CC1 [Perifosine] + NC(=O)Nc1cc(-c2cccc(F)c2)sc1C(=O)N[C@H]1CCCNC1 [AZD7762] (partner dose 0.1 µM) gave a cell count of 24.1%. Work on CCCCCCCCCCCCCCCCCCOP(=O)([O-])OC1CC[N+](C)(C)CC1 [Perifosine] + Cn1cncc1[C@@](N)(c1ccc(Cl)cc1)c1ccc2c(c1)c(-c1cccc(Cl)c1)cc(=O)n2C [tipifarnib] (partner dose 0.05 µM) yielded a cell count of 96.8%. With CCCCCCCCCCCCCCCCCCOP(=O)([O-])OC1CC[N+](C)(C)CC1 [Perifosine] + CC(C)(C)c1cnc(CSc2cnc(NC(=O)C3CCNCC3)s2)o1 [SNS-032] (partner dose 0.05 µM) the cell count was 91.5%. C[C@@H](N)c1ccc(C(=O)Nc2ccnc3[nH]ccc23)cc1 + COc1cc2c(Oc3ccc4[nH]c(C)cc4c3F)ncnc2cc1OCCCN1CCCC1 [cediranib] (partner dose 2 µM) showed a cell count of 75.6%. With Cn1sc(=O)n(Cc2ccccc2)c1=O + NCC(=O)Nc1ccc(-n2nc(C(F)(F)F)cc2-c2ccc3c(ccc4ccccc43)c2)cc1 [OSU03012] (partner dose 5 µM) the cell count was 91.9%.

From the supplement of paper PMC4604168 (melanoma cell lines)
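Further: cells treated in 1,536-well plates, then fixed and DAPI-stained, with nuclei counted from automated high-throughput microscope images.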
